# Read counts are not given, so values of variants with three or more changes are uncertain.
# B1: LINE1-mini (parent)
# chain: GGCAGAGCUCAACACAGCGUGGCAAAGUGGCUGUGGCUAGACUGCC
# Variants of: B1
# Assay: self-cleavage, relative activity (ratio to wild type); higher = more cleavage; in vitro, sequencing; the parent is a self-cleaving ribozyme
row,Variant,self-cleavage
1,GACAGAGCUCAACACAGCGUGGCAAAGUGGCUGAGGCUAGACUCCC [G2A U34A G44C],0.02
2,GACAGAGCUCAACACAGCGUGGCAAAGUGGCUGAGGCCAGACUGCC [G2A U34A U38C],0.29
3,GACAGAGCUCAACACAGCGUGGCAAAGUGGCUGCGGCUAGACUAUC [G2A U34C G44A C45U],0.09
4,GACAGAGCUCAACACAGCGUGGCAAAGUGGCUGUGGCUAGACAGAC [G2A U43A C45A],0.52
5,GCCCGAGCUCAACACAGCGUGGCGAAGUGGCUGUGGUUAGUCUGCC [G2C A4C A24G C37U A41U],0.04
6,GCCCGAGCUAAGCACAGCGUGGCAAAGUGCCUGUGGCUAUACUGCC [G2C A4C C10A A12G G30C G40U],0.01
7,GCCCGAGCUCAACACAGCGUGGCAAAGUGGAUGUGGCUAGACUGCC [G2C A4C C31A],0.06
8,GCCCGAGCUCAACACAGCGUUGAAAAGUGGCUGUGGCUAGACUGCC [G2C A4C G21U C23A],0.04
9,GCCCGAGCUCAACACAGCGUGGCAAAGUAGCUGUGGCUAGACUGCC [G2C A4C G29A],0
10,GCCCGAGCUCAACACAGCGUGGCAAAGUGGCUCAGGCUCGACUGCC [G2C A4C G33C U34A A39C],0.01
11,GCCCGAGCGCAAAACAGCCUGGCAAAGUGGCUGUGGCUAGACUGCC [G2C A4C U9G C13A G19C],0.22
12,GCCGGCUCUCAACACAGCUUGGCAAAGUUGAUGUGGCUAGACUGCC [G2C A4G A6C G7U G19U G29U C31A],0.06
13,GCCGGAGCUCAACACCGCGUGGCAAAGUGGCUGUGGCUAGACUGCC [G2C A4G A16C],0.02
14,GCCGGAGCUCAACACAGCGUGGCAACGUGGCUGUGGCUAGACUGCC [G2C A4G A26C],0.08
15,GCCGGAGGUCAACACAGCUUGGGAUAGUGGCUGUGACUAGACUGCC [G2C A4G C8G G19U C23G A25U G36A],0.06
16,GCCGGAGCUCAACACAGCGUGUCAAAGUGGCUGUGGCUAGACUGCC [G2C A4G G22U],0.54
17,GCCGGAGCUCAACACAGCGUGGCAAAAUGGCUGUGGCUGGACUGCC [G2C A4G G27A A39G],0.01
18,GCCGGAGCACAACACAGCGUGGCAAAGGGGCUGUGGCUAGACUGCC [G2C A4G U9A U28G],0.02
19,GCCUGAGCUCUACACAGCGUGGCAAUGUGGAUGUGGCUAGACUGCC [G2C A4U A11U A26U C31A],0.03

row,Variant,self-cleavage
1,GCCUGAGCUCUACACAGUGUGGCAAAGUGGCUGCGGCUAGACUGCC [G2C A4U A11U C18U U34C],0.01
2,GCCUGAGCUCAACACGGCGUUGCAAAGUGGCUGGGGCUAGAAUGAC [G2C A4U A16G G21U U34G C42A C45A],0.01
3,GCCUGAGAUCAACACAGCGUGGCAAAGCGGCUGUGGCUAGACUGCC [G2C A4U C8A U28C],0.04
4,GCCUGAGUUCAACACAGCGUGGCAAAGUGGCUGUGGCUAGACUGCC [G2C A4U C8U],0.02
5,GCCUGAGUUCUACACAGCGUGACAAAGAGGCUGGGGCUAGACUACC [G2C A4U C8U A11U G22A U28A U34G G44A],0
6,GCCUGAGCUAAACACAGCGUGGUAAAGUGGCUGUGGCCAGACUGCC [G2C A4U C10A C23U U38C],0.02
7,GCCUGAGCUCAACACAGUGUGGCUAAGUGGCUGUGGCUAGACUGCC [G2C A4U C18U A24U],0.13
8,GCCUGAGCUCAACACAGCGUGGUAAAGUGGCUGUCGCUAGACUGCC [G2C A4U C23U G35C],0.04
9,GCCUGAGCUCAACACAGCGUGGCAAAGUGGUUGUGGCUAAACUGCC [G2C A4U C31U G40A],0.04
10,GCCUGAGCUCAACACAGCGUGGCAAAGUGGCUGUGGCUAGACUGGC [G2C A4U C45G],0.05
11,GCCUUAUCUCAAGACAGAUUAGCAAAGUGGCUGUGGCUAGAUUGCC [G2C A4U G5U G7U C13G C18A G19U G21A C42U],0.06
12,GCCUGAGCUCAACACAGCGUGGCAAAGUAGCUGUGGCUAGAGUCCC [G2C A4U G29A C42G G44C],0.03
13,GCCUGAGCUCAACACAGCGUGGCAAAGUGGCCGUGGAUAGACUGCC [G2C A4U U32C C37A],0.03
14,GCCAGCGCUCCACACAGCGUGGCAAAGUGGCUGUGGCUAGAGUGCC [G2C A6C A11C C42G],0
15,GCCAGCGAUCUACACAGCGUGGCAAAGUGGCUGUGGCUAGACUGCC [G2C A6C C8A A11U],0.02
16,GCCAGCGCUCAAUACAGCGUGGCAAAGUGGCUAUGCCUAGACUGCC [G2C A6C C13U G33A G36C],0.02
17,GCCAGCGCUCAACAUAGCGUGGCAAAGUGGCUGUGGCUAGACUGCC [G2C A6C C15U],0.11
18,GCCAGCGCUCAACACAGUGUGGCAAAGUGGCUGUGGCUAGACUGCC [G2C A6C C18U],0.13
19,GCCAGCGCUCAACACACCGUGGCGCAGUGGCUGUGGCUAAACUGCC [G2C A6C G17C A24G A25C G40A],0.04

row,Variant,self-cleavage
1,GCCAGCGCAGAACACAGCGUGGCAUAGUGGCUGUGGCUAGACUGCC [G2C A6C U9A C10G A25U],0.02
2,GCCAGCGCUCAACACAGCGGGCCAAAGUGGCUGUGGCUAGACUGCC [G2C A6C U20G G22C],0.02
3,GCCAGGGCUCAUCACAGCGUGGCAAACUGGCUGUGGCUAGACAGCC [G2C A6G A12U G27C U43A],0.01
4,GCCAGGGCUCAACACCGCGUGGCAAAAUGGCUGUGGCUAGACGGCA [G2C A6G A16C G27A U43G C46A],0.01
5,GCCAGGGCUCAACACGGCGUGGCAAAGUGGUUGUGGCUAGAAUGCC [G2C A6G A16G C31U C42A],0.03
6,GCCAGGUCUCAACACAGCGUGGCAAAGUGGCUGUGGCUAGACUGCC [G2C A6G G7U],0.03
7,GCCAGGGCUCAACACAGCGUCGCAAAGUGGCUGUGGCUAGACUGCC [G2C A6G G21C],0.04
8,GCCAGGGCUCAACACAGCGUGGCAAAGUAGCUCUGGCUAGACUGCC [G2C A6G G29A G33C],0.03
9,GCCAGGGCUCAACACAGCGUGGCAAAGUGGCUGGGGCUAGACUGCC [G2C A6G U34G],0.01
10,GCCAGUGCUCGACACAGCGUGGCAAAGUGGGUGUGGCUAGACUGCC [G2C A6U A11G C31G],0.01
11,GCCAGUGCUCAACACAACGUGGCAAAGUGGCUGUAGCUCGACUGCC [G2C A6U G17A G35A A39C],0.03
12,GCCAGUGCUCAACACAGCGUCGCAAAGUGGCUGUGGCUAGACUGCC [G2C A6U G21C],0.08
13,GCCAGUGCUCAACACAGCGUCGCAAAGUGGCUGUGGCUAGAGUGCC [G2C A6U G21C C42G],0.03
14,GCCAGAGCUCCACCCAGCGUGGCAAAGUGGCUGUGGCUAGACUGCC [G2C A11C A14C],0.01
15,GCCAGAGCUCCAAACAGCGUGGCAAAGUGCCUGUGGCUAGACUGCC [G2C A11C C13A G30C],0.09
16,GCCAGAGCUCCAGACAGCGUGGCAAAGUGGCUGUGGCCAGACUGCC [G2C A11C C13G U38C],0.01
17,GCCAGAGCUCCACACAGCGUCGCAAAGUGGCUGUCGCUAGACUGCC [G2C A11C G21C G35C],0.04
18,GCCAGAGCUCCACACAGCGUGGCAAAGUGGCCGUGGCUAGACUGCC [G2C A11C U32C],0.02

# Source: the RNAGym collection of RNA variant scans (doi:10.7554/elife.90254)
